# Assay results reported in PubChem BioAssay (NCI).
# “And” between values parts separate entries of the source, which are not always exact repeats. Identical values can stand only once.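 Where inhibition never reached the appropriate level, the endpoint shown equals the highest concentration tested. Otherwise, values were interpolated linearly from a five-concentration, 48-hour dose response in 96-well plates. The concentration for 50% growth inhibition is given as GI50. TGI is the concentration that stops growth completely.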 Square brackets hold non-standard residues; d marks the D form. Peptide text beside a SMILES is read from it. * marks the point of attachment. Chg = N[CH](C(=O)O)C1CCCCC1; Cbz = O=C(OCc1ccccc1)*; OBn = c1ccc(CO*)cc1
# System: NCI-H322M lung
# Test: NCI-60 cell line screen, 48 h
SMILES,TGI,GI50
CN(C)CCN(C)CCC(=O)/C=C/c1ccccc1,> 100 µM,–
Cc1n[nH]c(=O)n1/N=C/c1cccc(Cl)c1,> 100 µM,–
N=c1c2c(=S)n(-c3ccccc3)c(=S)n(-c3ccccc3)c2nc(SCCCN2CCCCC2)n1-c1ccccc1,3.46 µM,–
CC1(C)CCCC2(C)[C@@H]1CC[C@@]13CC(=O)[C@@](C)(CC[C@@H]21)C3 (some centres undefined),> 100 µM,–
Cn1c(CCC2(C)Cc3ccccc3C(=O)O2)cc2ccccc2c1=O (centres undefined),> 100 µM,–
C=C1C(=O)O[C@@H]2C[C@@H]3[C@]4(CC[C@]5(C)[C@@H]([C@H](C)CC/C=C(\C)C=O)CC[C@@]35C)C[C@]4(CCC(=O)OC)[C@H]12,6.12 µM,–
NC(N)=N/N=C(/CCN1CCCC1)CC(c1ccccc1)c1c(O)c2ccccc2oc1=O (centres undefined),> 100 µM,–
N/C(=N\Nc1ccc(C(=O)O)cc1)c1cnccn1,> 100 µM,–
Cc1cccc(-n2c(C)nc3ccc(NC(=S)Nc4ccccc4)cc3c2=O)c1,> 100 µM,–
CC(C)c1ccccc1NC(=O)CCC(=O)NN,> 100 µM,–
COc1ccccc1C=NC12CC3CC(CC(C3)C1)C2,> 100 µM,–
O=C(Nc1nc(=S)[nH][nH]1)C(=O)C1C(=O)Nc2ccccc2S1=O (centres undefined),> 100 µM,–
c1ccc2[nH]c(C3CCCCO3)nc2c1 (centres undefined),> 100 µM,–
c1ccc(-c2ccc(-c3ccc(C4=NCCN4)cc3)o2)cc1,7.45 µM,–
O=C1C2=Cc3ccccc3OC2(O)Oc2cc(O)cc(O)c21 (centres undefined),> 100 µM,–
CC(=O)N(C(C)=O)c1c(N)n(C)c(=O)[nH]c1=O,> 100 µM,–
CN(C)c1ccc2nc3ccc(=[N+](C)C)c([N+](=O)[O-])c-3sc2c1,22 µM,4.82 µM
Cn1cc(NC(=O)c2cc(NC(=O)CCCCCCCCC(=O)Nc3cc(C(=O)Nc4cc(C(=O)NCCC(N)N)n(C)c4)n(C)c3)cn2C)cc1C(=O)NCCC(=N)N,32.5 µM,–
COc1cc2c(cc1OC)-c1cc(OC)c(OC)cc1[C@H]1CN3CCC[C@@]3(O)C=C21,0.000567 µM,–
C[N+](C)(C)CC1CCCC(C[N+](C)(C)C)C1=NO (centres undefined),> 100 µM,–
CC(=O)/C(N=Nc1ccc(-n2c(C)nc3ccccc3c2=O)cc1)=C(/C)O,> 100 µM,–
COc1cc(/C=N/NC(=O)c2c(Cl)c(Cl)c(Cl)c(Cl)c2-c2nc3ccccc3[nH]2)ccc1O,> 100 µM,–
COc1ccc(/C=C/c2cc(OC)cc(OC)c2)cc1,53.7 µM,–

SMILES,TGI,GI50
CCCCCCCCCCCCCCCC(=O)Nc1ccn(C2OC(CO)C(O)C2O)c(=O)n1 (centres undefined),> 100 µM,–
COc1ccc(-c2nc(S(=O)(=O)c3ccccc3)c(S(=O)CC(=O)N3CCC(C)CC3)o2)cc1 (centres undefined),20.8 µM,8.14 µM
Oc1c(CNCCCN2CCCC2)cc(Cl)c2cccnc12,20.4 µM,–
O=C(Cn1nnc(-c2ccccc2)n1)N/N=C/c1cn(Cc2ccc(Cl)cc2Cl)c2ccccc12,> 100 µM,–
CC1(C)COC(c2ccc(C(=O)c3ccc(Cl)cc3)cc2)=N1,> 100 µM,–
Cc1cc2nc(CS)[nH]c2cc1C,54.2 µM,19.8 µM
O=C1CNN=C(CSc2nc3ccc(I)cc3c(=O)n2Cc2ccccc2)N1,> 100 µM,–
COc1ccc(/C=C/C(=O)c2cc(C(=O)O)c(OC)cc2OC)cc1OC,> 100 µM,–
COc1ccc(-n2cnc3c(N)nc(N)nc32)cc1,> 100 µM,–
Cc1nc2ccccc2c(=O)n1NC(=O)c1ccc(N)cc1,> 100 µM,–
C[C@]12CC[C@H](OC3CCCCO3)CC1=CC[C@@H]1C2CC[C@]2(C)/C(=N/OCCC#N)CCC12 (some centres undefined),> 100 µM,–
COc1ccc(-c2ccccc2)c(N/N=C2\CCCNC2=O)c1,> 100 µM,–
Nc1ncnc2c1ncn2C1OC(CSC(F)F)C(O)C1O (centres undefined),> 100 µM,–
COc1ccc(N=NC(=O)NC(CC(C)C)C(=O)NC(CC(C)C)C(=O)O)cc1 (centres undefined),> 100 µM,–
COc1ccc(NC(C)=O)cc1N1C(=O)/C(=C\c2cccc(Oc3ccccc3)c2)S(=O)(=O)C1c1ccccc1 (centres undefined),> 100 µM,–
Cc1ccc2c(c1)C(=O)C(c1c(-c3[nH]c(=O)c4ccc(C)cc4c3O)c(O)c3ccccc3c1O)=NC2=O,5.85 µM,2.24 µM
O=C(O)C1Cc2c([nH]c3ccccc23)C(CCCCO)N1 (centres undefined),> 100 µM,–
COc1cc(Cl)cc(-c2nn(-c3cccc(NC(=O)c4cccc(C(F)(F)F)c4)c3)cc2-c2ccncc2)c1,> 100 µM,> 100 µM
CCOC(=O)C(=CNC(=S)c1ccncc1)C(=O)OCC,> 100 µM,–
C=CCC(NCc1ccccc1)[C@H](OCc1ccccc1)[C@@H]1COC(C)(C)O1 (some centres undefined),> 100 µM,–
CC1=NOC(C)(O)/C1=N/O (centres undefined),> 100 µM,–
NCCN1C(=O)c2cc(Cl)c(Cl)cc2C1(O)c1ccc(Cl)cc1 (centres undefined),5.94 µM,–
N[C@@H]1CCCC[C@@H]1N.O=P([O-])([O-])CNCP(=O)([O-])[O-].[Pt+2],> 100 µM,> 100 µM

SMILES,TGI,GI50
C[C@H](Nc1ccc2c(c1)OCCn1cc(N3C(=O)OC[C@H]3C(F)F)nc1-2)C(N)=O,> 66.5 µM,0.461 µM
Cc1ccc(C2CC(c3cccc(Nc4ccncc4)c3)=NN2c2cc(Cl)cc(Cl)c2)cc1 (centres undefined),2.97 µM,1.58 µM
CC(C)(O)C1CC[C@]2(C)CC[C@]3(C)[C@H](CC[C@@H]4[C@@]5(C)CC[C@H](O)C(C)(C)[C@@H]5CC[C@]43C)[C@@H]12 (some centres undefined),62.4 µM,–
O=c1cc(NNc2ccc(F)cc2)[nH]c(=O)[nH]1,> 100 µM,–
NC(N)=NCCCC(NC(=O)OCCCCCn1ccc(N)nc1=O)C(=O)O (centres undefined),> 100 µM,–
C[C@]12OC(=O)[C@]3(O)CC[C@H]4[C@@H](C[C@@H](O)[C@@]5(Cl)CC=CC(=O)[C@]45C)[C@]45OCC6C(=O)O[C@@H]1C[C@@]6(C)[C@H](C4=O)[C@@]32O5 (some centres undefined),15.7 µM,–
CC(=O)OCC1OC(n2c(C)c(C(C)=O)c(-c3ccc(Cl)cc3)c(C#N)c2=S)C(OC(C)=O)C(OC(C)=O)C1OC(C)=O (centres undefined),> 100 µM,–
C[n+]1c2ccccc2c2/c(=C\C#N)c3ccccc3n21,57 µM,–
O=C(C(Cl)Cl)N(O)c1ccccc1OCc1ccccc1,> 100 µM,–
CC(=O)Oc1c(C)cc2c(c1C)C(C)CN2C(C)=O (centres undefined),> 100 µM,–
Oc1cc2ccccc2cc1-c1n[nH]c(=S)n1CCc1ccccc1,> 100 µM,75.1 µM
CCn1cc(C2NC(=O)c3ccccc3N2)c2cccc(C)c21 (centres undefined),54.1 µM,0.6 µM
COCC1OC(OC2OCC3OC4(OCC(O)(C(C)OC)C5OCOC54)OC3C2OC)C(OC)C(O)C1OC1OC(C)C(OC)C(OC2OC(C)C3OC4(CC(O)C(OC5CC(OC6CC(C)([N+](=O)[O-])C(OC)C(C)O6)C(OC(=O)c6c(C)c(Cl)c(O)c(Cl)c6OC)C(C)O5)C(C)O4)OC3(C)C2O)C1O (centres undefined),> 100 µM,–
COc1ccc2c(N=[N+]=[N-])c(-c3ccccc3)c(=O)oc2c1,> 100 µM,–
CSc1ccc(NC(=O)C2CCCCC2C(=O)O)cc1 (centres undefined),> 100 µM,–
COc1cc2c(cc1O)[C@@]1(Cc3ccc(OC)c(OC)c3)CCC(=O)N1CC2,> 100 µM,–
O=C(O)c1ccc2nc(-c3ccc(OCCCCCOc4ccc(-c5nc6ccc(C(=O)O)cc6[nH]5)cc4)cc3)[nH]c2c1,> 100 µM,> 100 µM
CCCCC(CCCC)=NNC(=S)SC,85 µM,–
CN(C)C(=O)Oc1ccc[n+](C)c1,> 100 µM,–
CCCC(=O)OCC(COC(=O)CCC)OC(=O)CCC,> 100 µM,–
CN1CCCN(C)CCCN(C)CCCN(C)CCC1,> 100 µM,–
N/N=C(\CCN1CCCC1)CC(c1ccccc1)c1c(O)c2ccccc2oc1=O (centres undefined),> 100 µM,–
CCOC(=O)COc1ccc(OC)c2c1C(=O)CCC2,> 100 µM,–

SMILES,TGI,GI50
CN1CCN(CCOc2ccc(-c3cnc4c(-c5cccc(F)c5F)cnn4c3)cc2)CC1,3.81 µM,1.84 µM
OCCOCCO/N=C1\C(c2c(O)[nH]c3ccccc23)=Nc2ccccc21,20.3 µM,–
COCOCCCCCO[Si](C)(C)C(C)(C)C,> 100 µM,–
CN(N=O)C(=O)NNC(=O)N(C)N=O,> 100 µM,–
COC(=O)C(NC(=O)C(CC(=O)OCc1ccccc1)NC(=O)OCc1ccccc1)C1CCCCC1 (centres undefined) (Cbz-Asp(OBn)-[Chg]-OMe; configuration not given here),> 100 µM,–
CN1C(=O)C(O)CC1c1ccc(C(F)(F)F)cc1 (centres undefined),> 100 µM,–
NC12CC3C4CC5(N)CC3C(C1)C(C5)C4C2,> 100 µM,–
CC1OC(OC2C(O)COC(OC3C(C)OC(OC4C(OC(=O)[C@]56CCC(C)(C)C[C@@H]5C5=CCC7[C@@]8(C)C[C@H](O)[C@H](OC9OC(CO)C(O)C(O)C9O)[C@@](C)(CO)[C@@H]8CC[C@@]7(C)[C@]5(C)CC6)OCC(O)C4O)C(O)C3OC3OCC(O)C(O)C3O)C2O)C(O)C(O)C1O (some centres undefined),30 µM,–
COc1cc2c[n+](C)c3c4cc(OC)c(OC)cc4c(OCCCCCCCCOc4cc5c6cc(OC)c(OC)cc6c[n+](C)c5c5cc(OC)c(OC)cc45)cc3c2cc1OC,> 100 µM,–
CC(=O)O[C@H]1C[C@H](O[C@H]2[C@@H](O)C[C@H](O[C@H]3[C@@H](O)C[C@H](O[C@H]4CC[C@@]5(C)C(CCC6C5C[C@@H](O)[C@]5(C)[C@@H](C7=CC(=O)OC7)CC[C@]65O)C4)O[C@@H]3C)O[C@@H]2C)O[C@H](C)[C@H]1O[C@@H]1O[C@H](CO)[C@@H](O)[C@H](O)[C@H]1O (some centres undefined),0.171 µM and 0.405 µM,0.0333 µM and 0.104 µM
CCOC(=O)c1cnc2c(C)cc(C)cc2c1NCCCN(C)C,67.2 µM,5.26 µM
CC(=O)c1c(-c2ccc(Cl)cc2)c(C#N)c(=S)n(C2OC(CO)C(O)C(O)C2O)c1-c1ccccc1 (centres undefined),> 100 µM,–
COc1cc(O)c2c3c(ccnc13)-c1ccccc1N2,92.4 µM,20.6 µM
CC(C)NC(=O)OCc1c(COC(=O)NC(C)C)n(C)c2c1ccc1ccsc12,34.9 µM,–
CC(C)OC(=O)c1cc(NC(=O)C(C)(C)C)c(F)cc1Cl,> 100 µM,–
O=c1cc(N2CCOCC2)[nH]c(=O)n1-c1cccc(Cl)c1,> 100 µM,–
CC[C@H](C)[C@H](NC(=O)C12CC(NC)(C1)C2)C(=O)N(C)[C@H](C[C@@H](OC(C)=O)c1nc(C(=O)N[C@@H](Cc2ccccc2)C[C@H](C)C(=O)OC)cs1)C(C)C,> 25 µM,1.32 µM
Cc1ccc(NN=NCCCCN=NNc2ccc(C)cc2)cc1,> 100 µM,–
COc1ccc2cnc(N)c(C#Cc3cc(C(=O)Nc4ccc(CN5CCN(C)CC5)c(C(F)(F)F)c4)cnc3C)c2c1,> 26.7 µM,> 17.9 µM
Cc1ccc(Oc2ccc(C(=O)c3cccc(C(=O)c4ccc(Oc5ccc(C)cc5)cc4)n3)cc2)cc1,> 100 µM,–
C(=C\c1cc(CCc2nc3ccccc3[nH]2)[nH]n1)/c1ccccc1,> 100 µM,–
CC(C)Cn1cnc2c(Sc3c([N+](=O)[O-])ncn3C)nc(N)nc21,> 100 µM,–
CCN(C(C)=N)c1ccccc1,> 100 µM,–
